From the supplement of paper PMC4967469

Compound: CCc1nc(-c2cccc(C)c2)c(-c2ccnc(NC(=O)c3ccccc3)c2)s1 [TAK-715]
Experiment: Viability of human cancer cell lines after 72 h of drug (GDSC screen)
Settings: top dose inferred
Protocol: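 Human cancer cell lines in 384-well plates, medium with 10% serum, drug for 72 h over a 256-fold dose range (nine 2-fold or five 4-fold steps up to the top dose). Adherent lines were fixed and stained with the nucleic acid dye Syto60, suspension lines read with resazurin; signal relative to control wells, capped at 0 and 100%. One two-parameter sigmoid per drug and line, fitted in a mixed model over all curves with the slope shared within a line.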

| Cell Line | AUC | IC50 [µM] |
| --- | --- | --- |
| NB12 (neuroblastoma, adherent, top dose 20 µM) | 0.895 | > 20 |
| NB13 (neuroblastoma, adherent, top dose 20 µM) | 0.965 | > 20 |
| NB14 (neuroblastoma, adherent, top dose 20 µM) | 0.935 | > 20 |
| NB17 (neuroblastoma, adherent, top dose 20 µM) | 0.967 | > 20 |
| NB69 (neuroblastoma, adherent, top dose 20 µM) | 0.977 | > 20 |
| NB(TU)1-10 (neuroblastoma, adherent, top dose 20 µM) | 0.982 | > 20 |
| NB-4 (acute myeloid leukaemia, suspension, top dose 20 µM) | 0.94 | > 20 |
| NCC021 (kidney, adherent, top dose 20 µM) | 0.985 | > 20 |
| NCI-H23 (lung adenocarcinoma, adherent, top dose 20 µM) | 0.937 | > 20 |
| NCI-H28 (mesothelioma, adherent, top dose 20 µM) | 0.967 | > 20 |
| NCI-H64 (small cell lung carcinoma, suspension, top dose 20 µM) | 0.951 | > 20 |
| NCI-H69 (small cell lung carcinoma, suspension, top dose 20 µM) | 0.951 | > 20 |
| NCI-H82 (small cell lung carcinoma, suspension, top dose 20 µM) | 0.968 | > 20 |
| NCI-H187 (small cell lung carcinoma, suspension, top dose 20 µM) | 0.986 | > 20 |
| NCI-H196 (small cell lung carcinoma, adherent, top dose 20 µM) | 0.988 | > 20 |
| NCI-H209 (small cell lung carcinoma, suspension, top dose 20 µM) | 0.986 | > 20 |
| NCI-H211 (small cell lung carcinoma, adherent, top dose 20 µM) | 0.94 | > 20 |
| NCI-H226 (lung squamous cell carcinoma, adherent, top dose 20 µM) | 0.921 | > 20 |
| NCI-H292 (lung adenocarcinoma, adherent, top dose 20 µM) | 0.915 | > 20 |
| NCI-H322M (lung adenocarcinoma, suspension, top dose 20 µM) | 0.967 | > 20 |
| NCI-H345 (small cell lung carcinoma, suspension, top dose 20 µM) | 0.957 | > 20 |
| NCI-H358 (lung adenocarcinoma, adherent, top dose 20 µM) | 0.79 | 10 |
| NCI-H441 (lung adenocarcinoma, adherent, top dose 20 µM) | 0.931 | > 20 |
| NCI-H446 (small cell lung carcinoma, semi-adherent, top dose 20 µM) | 0.978 | > 20 |

| Cell Line | AUC | IC50 [µM] |
| --- | --- | --- |
| NCI-H460 (large cell lung carcinoma, adherent, top dose 20 µM) | 0.969 | > 20 |
| NCI-H510A (small cell lung carcinoma, semi-adherent, top dose 20 µM) | 0.989 | > 20 |
| NCI-H520 (lung squamous cell carcinoma, adherent, top dose 20 µM) | 0.931 | > 20 |
| NCI-H522 (lung adenocarcinoma, adherent, top dose 20 µM) | 0.932 | > 20 |
| NCI-H524 (small cell lung carcinoma, suspension, top dose 20 µM) | 0.954 | > 20 |
| NCI-H526 (small cell lung carcinoma, suspension, top dose 20 µM) | 0.984 | > 20 |
| NCI-H596 (lung adenocarcinoma, adherent, top dose 20 µM) | 0.981 | > 20 |
| NCI-H630 (large intestine, adherent, top dose 20 µM) | 0.936 | > 20 |
| NCI-H647 (non-small cell lung carcinoma, adherent, top dose 20 µM) | 0.876 | > 20 |
| NCI-H650 (lung adenocarcinoma, adherent, top dose 20 µM) | 0.948 | > 20 |
| NCI-H661 (large cell lung carcinoma, adherent, top dose 20 µM) | 0.926 | > 20 |
| NCI-H716 (large intestine, suspension, top dose 20 µM) | 0.902 | > 20 |
| NCI-H720 (lung carcinoid, suspension, top dose 20 µM) | 0.944 | > 20 |
| NCI-H727 (lung carcinoid, adherent, top dose 20 µM) | 0.932 | > 20 |
| NCI-H747 (large intestine, adherent, top dose 20 µM) | 0.807 | 13.1 |
| NCI-H748 (small cell lung carcinoma, suspension, top dose 20 µM) | 0.967 | > 20 |
| NCI-H810 (large cell lung carcinoma, adherent, top dose 20 µM) | 0.916 | > 20 |
| NCI-H838 (lung adenocarcinoma, adherent, top dose 20 µM) | 0.974 | > 20 |
| NCI-H841 (small cell lung carcinoma, adherent, top dose 20 µM) | 0.949 | > 20 |
| NCI-H847 (small cell lung carcinoma, adherent, top dose 20 µM) | 0.939 | > 20 |
| NCI-H1048 (small cell lung carcinoma, adherent, top dose 20 µM) | 0.919 | > 20 |
| NCI-H1092 (small cell lung carcinoma, suspension, top dose 20 µM) | 0.936 | > 20 |
| NCI-H1155 (large cell lung carcinoma, suspension, top dose 20 µM) | 0.913 | > 20 |
| NCI-H1299 (large cell lung carcinoma, adherent, top dose 20 µM) | 0.98 | > 20 |

| Cell Line | AUC | IC50 [µM] |
| --- | --- | --- |
| NCI-H1304 (small cell lung carcinoma, suspension, top dose 20 µM) | 0.946 | > 20 |
| NCI-H1355 (lung adenocarcinoma, adherent, top dose 20 µM) | 0.927 | > 20 |
| NCI-H1395 (lung adenocarcinoma, adherent, top dose 20 µM) | 0.972 | > 20 |
| NCI-H1417 (small cell lung carcinoma, suspension, top dose 20 µM) | 0.843 | 18.4 |
| NCI-H1435 (lung adenocarcinoma, semi-adherent, top dose 20 µM) | 0.976 | > 20 |
| NCI-H1436 (small cell lung carcinoma, suspension, top dose 20 µM) | 0.955 | > 20 |
| NCI-H1437 (lung adenocarcinoma, adherent, top dose 20 µM) | 0.9 | > 20 |
| NCI-H1563 (lung adenocarcinoma, adherent, top dose 20 µM) | 0.935 | > 20 |
| NCI-H1568 (lung adenocarcinoma, adherent, top dose 20 µM) | 0.968 | > 20 |
| NCI-H1573 (lung adenocarcinoma, adherent, top dose 20 µM) | 0.959 | > 20 |
| NCI-H1581 (large cell lung carcinoma, semi-adherent, top dose 20 µM) | 0.933 | > 20 |
| NCI-H1623 (lung adenocarcinoma, adherent, top dose 20 µM) | 0.978 | > 20 |
| NCI-H1648 (lung adenocarcinoma, adherent, top dose 20 µM) | 0.934 | > 20 |
| NCI-H1651 (lung adenocarcinoma, adherent, top dose 20 µM) | 0.983 | > 20 |
| NCI-H1666 (lung adenocarcinoma, semi-adherent, top dose 20 µM) | 0.986 | > 20 |
| NCI-H1688 (small cell lung carcinoma, adherent, top dose 20 µM) | 0.917 | > 20 |
| NCI-H1693 (lung adenocarcinoma, adherent, top dose 20 µM) | 0.967 | > 20 |
| NCI-H1694 (small cell lung carcinoma, suspension, top dose 20 µM) | 0.927 | > 20 |
| NCI-H1703 (lung adenocarcinoma, adherent, top dose 20 µM) | 0.926 | > 20 |
| NCI-H1734 (lung adenocarcinoma, adherent, top dose 20 µM) | 0.964 | > 20 |
| NCI-H1755 (lung adenocarcinoma, adherent, top dose 20 µM) | 0.943 | > 20 |
| NCI-H1770 (non-small cell lung carcinoma, suspension, top dose 20 µM) | 0.954 | > 20 |
| NCI-H1781 (lung adenocarcinoma, adherent, top dose 20 µM) | 0.989 | > 20 |
| NCI-H1792 (lung adenocarcinoma, adherent, top dose 20 µM) | 0.968 | > 20 |

Lines with a small IC50 respond at low doses; fits outside the tested doses are given as limits. For AUC the same curve is integrated over the 256-fold range of doses and scaled to a fraction; it is 1 without any effect and falls as sensitivity rises. Any top dose called inferred was calculated from the reported fits.
